Test results: PubChem BioAssay AID445 (National Center for Advancing Translational Sciences (NCATS), 2006)
Among all 110,000 compounds or so, about 40 (0.04%) were called active. The inconclusive results got no clear call from the source; some entries with a clear call stand among them for comparison. Calls follow the shape of the dose curve; as a rule, active = well fitted curve in the direction sought with a large enough effect in the signal ratio (not every such curve was filed as active); inconclusive = small, poorly fitted or top-dose-only effect, or a change in a side signal; inactive = flat fitted curve, though single readings scatter; the % refers to the signal ratio. Potencies beside an inconclusive call are fits to weak or partial responses and may not hold up.

Test: IkB Signaling;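 as to IkBa stabilization activation: 0% = basal untreated cells and 100% = reference inhibitor full response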
Conditions: ABC-DLBCL IkBa-CBG/CBR dual luciferase ratio (green luciferase fused to IkBa over red control in OCI-Ly3 lymphoma cells), 4 h; IkBa stabilization activation: at 57.1 µM (top of the series), scaled: untreated 0%, proteasome inhibitor 100% unless noted
Method in brief: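 In this assay, an IκBα–CBG68 fusion accumulates when IKK-driven degradation is blocked; native CBR normalizes for cell number. OCI-Ly3 cells were treated 4 h with compound and doxycycline, then green and red light read after Chroma-Glo addition.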
Potency is read from the fitted curve at half-maximal effect.

Compound | IkBa stabilization activation | Potency
O=C(NCc1ccccc1F)c1cc2ccccn2n1 | inconclusive: 0.84% [signal inhibitor] | 
O=C(CSc1nnnn1-c1ccc2c(c1)OCCO2)c1cccc2c1OCCO2 | inconclusive: 5.82% [signal inhibitor] | 
Cn1c(=O)c(-c2cc(F)cc(F)c2)nc2cnc(N3CCNCC3)nc21 | inactive: -1.53% [at 11.4 µM, scaled: untreated 0%, proteasome inhibitor 100%] | 
O=[N+]([O-])c1cccc2c[nH]nc12 | inactive: 0.694% | 
Brc1ccccc1-c1nnc(-c2cccnc2)o1 | inactive: 3.77% | 
COc1ccc(Cl)cc1NC(=O)c1noc2c1CCc1ccccc1-2 | inconclusive: 15.2% [signal inhibitor] | 
CCCCCCCCCC(=O)O | inactive: 0.172% | 
O=C(NC1CCCCC1)C(c1ccncc1)N(C(=O)Cn1nnc(-c2cccs2)n1)C1CCCC1 (stereo unspecified) | inconclusive: 1.88% [signal inhibitor] | 
Cc1cccc(N2CCN(C(=O)CCNS(=O)(=O)c3ccc4c(c3)CCN4C(=O)C3CC3)CC2)c1C | inconclusive: 10.3% [signal inhibitor] | 
COc1ccc2nc(NC(=O)c3nc(S(=O)(=O)Cc4ccc(C)cc4)ncc3Cl)sc2c1 | inconclusive: -2.33% [signal inhibitor] | 
CN(CC[C@@H](Oc1ccc(-c2ccccc2)cc1)c1ccc(F)cc1)CC(=O)O | inactive: 0.489% | 
CCOc1ccccc1NC(=O)CN(c1cc(C)cc(C)c1)S(=O)(=O)c1c(C)nn(C)c1C | inconclusive: 5.34% [signal inhibitor] | 
Cc1ccc(NC(=O)c2cc(NC(=O)c3ccco3)ccc2N2CCOCC2)cc1 |  | inconclusive: 0.631 µM [signal inhibitor, full curve]
CCOc1ccc2nc(Cl)c(C3CC(c4ccccc4)=NN3C(=O)CCC(=O)O)cc2c1 (stereo unspecified) | inconclusive: -0.994% [signal inhibitor] | 
Cc1ccc(Nc2nc(CSc3nnnn3-c3ccccc3)cs2)cc1 | inconclusive: 2.97% [signal inhibitor] | 
Cc1ccc(-c2nnc(Nc3ccc(O)cc3)c3ccccc23)cc1S(=O)(=O)NC(C)(C)CO |  | inconclusive: 7.94 µM [signal inhibitor]
CCOc1ccc(S(=O)(=O)N(CC(=O)Nc2ccc(OC)c(Cl)c2)c2ccccc2)cc1 | inconclusive: 4.13% [signal inhibitor] | 
Cc1nn2c(C)c(C(=O)NCc3cccc(Br)c3)cnc2c1-c1ccccc1 | inactive: -1.66% | 
O=C(O)[C@@H](O)[C@@H](O)[C@@H](O[C@H]1O[C@@H](CO)[C@@H](O)[C@@H](O)[C@@H]1O)[C@@H](O)CO | inactive: 0.67% [at 25.6 µM, scaled: untreated 0%, proteasome inhibitor 100%] | 
CCOc1cc(C(=O)Nc2ccc3nc(N4CCN(C)CC4)cc(C)c3c2)cc(OCC)c1OCC | inconclusive: 2.17% [signal inhibitor] | 
CCOc1ccccc1NC(=O)c1ccccc1-c1nc(-c2ccccc2OC)no1 | inconclusive: 2.36% [signal inhibitor] | 
CCc1c(C)c(C#N)c2nc3ccccc3n2c1Nc1c(C)n(C)n(-c2ccccc2)c1=O | inactive: 0.432% | 

Compound | IkBa stabilization activation | Potency
Cc1oc2ncnc(N3CCCCC3)c2c1C(=O)N1CCN(c2ccc(Cl)cc2)CC1 | inconclusive: 0.322% [signal inhibitor] | 
CCOC(=O)c1ccccc1NC(=O)CSc1cn(CC(=O)N2CCCCCC2)c2ccccc12 | inconclusive: -0.184% [signal inhibitor] | 
Cc1noc(C)c1-c1ccc2ncnc(N3CCN(C)CC3)c2c1 | inactive: 8.53% [at 11.4 µM, scaled: untreated 0%, proteasome inhibitor 100%] | 
COc1ccc(-c2nc3c4ccccc4n(CC(=O)N4CCN(c5ccccc5F)CC4)c(=O)n3n2)cc1 | inactive: 1.04% | 
O=C(NC1C=CS(=O)(=O)C1)c1sc2ccccc2c1Cl (stereo unspecified) | inconclusive: 4.39% [signal inhibitor] | 
CSc1nc(NC(C)(C)C)nc(Oc2ccc(=O)[nH]n2)n1 | inactive: -0.486% | 
CN(C)c1ccc(C2=NOC(CN3C(=O)c4ccccc4S3(=O)=O)C2)cc1 (stereo unspecified) | inconclusive: 4.78% [signal inhibitor] | 
CCc1ccc(NC(=O)CCCc2nnc3n(C(C)CC)c(=O)c4sccc4n23)cc1 (stereo unspecified) | inconclusive: -1.29% [signal inhibitor] | 
Cc1ccc(NC(=O)CSc2nnc(NC(=O)NC3CCCCC3)s2)cc1 | inactive: 3.44% | 
Cc1ccc(Cl)cc1N1CCN(C(=O)COc2cc(=O)n(C)c3ccccc23)CC1 | inconclusive: 0.317% [signal inhibitor] | 
CC(=O)N1CCc2c(sc3c2c(=O)n(Cc2ccccc2)c(=O)n3Cc2ccccc2Cl)C1 | inconclusive: 4.42% [signal inhibitor] | 
COc1cc(-c2nc(-c3ccccc3)c(-c3ccc(Br)cc3)[nH]2)cc(OC)c1O | inconclusive: 16.4% [signal inhibitor] | 
CN(Cc1ccco1)c1ncnc2ccc(-c3ccoc3)cc12 | inconclusive: 4.47% [signal inhibitor] [at 11.4 µM, scaled: untreated 0%, proteasome inhibitor 100%] | 
COc1ccc(NC(=O)C2CCN(c3ccc(Sc4ccc(C)cc4)nn3)CC2)cc1 | inconclusive: 2.82% [signal inhibitor] | 
CCCCCn1c(CN(C)Cc2ccccc2)nc2c1c(=O)n(C)c(=O)n2C | inconclusive: 1.44% [signal inhibitor] | 
CC1CN(C(=O)N2CCC(C(=O)NCc3cccs3)CC2)c2ccccc2O1 (stereo unspecified) |  | inconclusive: 3.16 µM [signal inhibitor, partial curve]
COc1ccc(Nc2oc(/C=C/c3cc(OC)c(OC)c(OC)c3)nc2C#N)cc1 | inconclusive: 5.53% [signal inhibitor] | 
COc1cccc(CNC(=O)Cn2c(=O)nc(-c3ccccc3F)c3cc(Cl)ccc32)c1 | inconclusive: 7.19% [signal inhibitor] | 
CC(=O)N(c1ccc2oc(=O)sc2c1)S(=O)(=O)c1cccs1 | inactive: -0.0889% | 
Cc1sc2ncn(CC(=O)N3CCN(c4cccc(Cl)c4)CC3)c(=O)c2c1S(=O)(=O)N1CCC(C)CC1 | inconclusive: 4.36% [signal inhibitor] | 
COC(=O)c1ccc(NC(=O)CN(C)S(=O)(=O)c2ccc3c(c2)CCCC(=O)N3)cc1 | inconclusive: -0.554% [signal inhibitor] | 
COc1cccc(C(=O)N2CCc3cc(OC)c(OC)cc3C2COc2ccc3c(C)cc(=O)oc3c2)c1 (stereo unspecified) | inactive: 0.441% | 

Compound | IkBa stabilization activation | Potency
N#C/C(=C/c1ccccc1Cl)c1nc(-c2cc3ccccc3oc2=O)cs1 | inactive: 3.5% | 
CN1CCN(c2ncc3nc(-c4cc(F)cc(F)c4)c(=O)n(CCC#N)c3n2)CC1 | inactive: -1.62% [at 11.4 µM, scaled: untreated 0%, proteasome inhibitor 100%] | 
COc1cc(C)ccc1OCCSc1nc2ccc(NC(=O)c3ccccc3F)cc2s1 | inconclusive: 0.872% [signal inhibitor] | 
COC(=O)c1cc(NC(=O)Cn2nc(-c3ccccc3)c3c(c2=O)CCCC3)cc(C(=O)OC)c1 | inconclusive: 2.56% [signal inhibitor] | 
O=C(Nc1ccccc1)N1CCC2(CC1)CCN(C(=O)c1csnn1)CC2 | inactive: 4.23% [at 11.4 µM, scaled: untreated 0%, proteasome inhibitor 100%] | 
O=C(Nc1nsc(-c2ccccc2)n1)c1cccs1 |  | inconclusive: 15.8 µM [signal inhibitor, partial curve]
COc1ccc2cc3cc(C(=O)NCCN4CCc5ccccc5C4)oc3nc2c1 | inconclusive: -5.17% [signal inhibitor] | 
Cc1ccc(-n2nc3c([n+]2[O-])CCc2c-3no[n+]2[O-])cc1 | inconclusive: 1.06% [signal inhibitor] | 
CCOC(=O)c1cnc(Nc2nc3ccccc3o2)nc1CN1CCN(c2ccccc2)CC1 |  | inconclusive: 3.98 µM [signal inhibitor, full curve]
CCSc1nc(-c2ccc(OC)cc2)ccc1C#N | inactive: 1.46% | 
Cc1ccc(NS(=O)(=O)c2ccc3[nH]c4c(c3c2)CCCCCC4)cc1C | inconclusive: -2.05% [signal inhibitor] | 
N#Cc1c(SCC(N)=O)nc2c(c1-c1ccc(O)cc1)CCCC2 | inactive: 1.66% | 
CCOc1ccc(S(=O)(=O)Nc2ccc3c(c2)CCCN3S(=O)(=O)c2ccc(C)cc2)cc1 | inconclusive: 2.87% [signal inhibitor] | 
Cc1cccc(Nc2nnc(-c3ccc(C)c(S(=O)(=O)N4CCOCC4)c3)c3ccccc23)c1 | inconclusive: 12.4% [signal inhibitor] | 
CCCCN(C(=O)CCn1c(=O)oc2ccccc21)c1ccccc1 | inconclusive: -0.443% [signal inhibitor] | 
CC1CCCCN1C(=O)c1cnn2c(C(F)(F)F)cc(-c3ccco3)nc12 (stereo unspecified) | inactive: -0.798% | 
CCOc1ccc(-c2cc(CCCC(=O)NCCc3ccc(SC)cc3)no2)cc1 | inconclusive: 3.05% [signal inhibitor] | 
Cc1ccc(-c2noc(CCC(=O)Nc3cccc(C#N)c3)n2)cc1 | inconclusive: 3.14% [signal inhibitor] | 
COCCn1c(C)cc(O)c(C(c2ccccc2Cl)N2CCN(c3ccccc3)CC2)c1=O (stereo unspecified) | inactive: -0.224% | 
COc1cc(NC(=O)c2noc3c2CC(C(C)(C)C)CC3)cc(OC)c1OC (stereo unspecified) | inconclusive: -2.62% [signal inhibitor] | 
CCN(CC)C(=O)c1sc2c(c1C)c(=O)n(Cc1ccccc1)c(=O)n2Cc1c(C)cc(C)cc1C | inconclusive: -0.603% [signal inhibitor] | 
CCNc1ncc2nc(-c3cc(F)cc(F)c3)c(=O)n(C3CC3)c2n1 | inactive: -0.331% [at 11.4 µM, scaled: untreated 0%, proteasome inhibitor 100%] | 
